Source: PMC7511960
No constants are given. Whether binding was seen depends on the method and setting. In cells and extracts the contact can be indirect. Some entries that bind do so weakly or less than the wild type. Tags and fused reporters may be left off the sequences shown.

The chains behind the UniProt entries cited, without tags or fusion partners.
UniProt O95863: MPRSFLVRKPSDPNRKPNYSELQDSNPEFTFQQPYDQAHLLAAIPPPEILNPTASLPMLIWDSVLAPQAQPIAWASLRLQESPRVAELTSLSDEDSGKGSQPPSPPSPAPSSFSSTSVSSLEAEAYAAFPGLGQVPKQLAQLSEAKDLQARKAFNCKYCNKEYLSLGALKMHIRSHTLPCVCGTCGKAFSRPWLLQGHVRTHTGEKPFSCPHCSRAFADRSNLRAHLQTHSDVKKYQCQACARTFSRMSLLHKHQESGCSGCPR

Assays:
Experiment in all cases: co-IP; HEK293T co-transfected for 24 h; GFP or GFP-tagged USP29 variants immunoprecipitated with anti-GFP antibody and protein G-agarose, 4 h at 4 °C, Triton X-100 lysis buffer (50 mM Tris-HCl pH 7.4, 150 mM NaCl, 1 mM EDTA, 1% Triton X-100); blot for Snail1
[1] = molecular target: T1, GFP-USP29(USP), catalytic USP domain (amino acids 284-922) (UniProt Q9HBJ7)
T1 sequence: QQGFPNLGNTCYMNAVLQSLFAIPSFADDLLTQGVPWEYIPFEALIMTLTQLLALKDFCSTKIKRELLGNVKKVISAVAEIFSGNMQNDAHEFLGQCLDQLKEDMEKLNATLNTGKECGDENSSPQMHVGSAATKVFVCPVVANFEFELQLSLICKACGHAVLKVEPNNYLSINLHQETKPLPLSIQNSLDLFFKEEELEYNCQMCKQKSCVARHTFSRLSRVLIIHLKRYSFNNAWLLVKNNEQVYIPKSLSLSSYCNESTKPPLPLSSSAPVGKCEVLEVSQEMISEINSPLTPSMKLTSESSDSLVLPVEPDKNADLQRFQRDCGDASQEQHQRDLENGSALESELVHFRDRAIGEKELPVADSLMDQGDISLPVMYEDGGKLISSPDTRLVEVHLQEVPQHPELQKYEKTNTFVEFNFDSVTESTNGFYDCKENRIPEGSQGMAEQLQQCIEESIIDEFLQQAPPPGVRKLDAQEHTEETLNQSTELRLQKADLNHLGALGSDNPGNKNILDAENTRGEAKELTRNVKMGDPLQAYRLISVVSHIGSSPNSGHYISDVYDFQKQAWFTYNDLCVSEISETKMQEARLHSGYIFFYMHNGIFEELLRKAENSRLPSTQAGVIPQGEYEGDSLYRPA

[2] = molecular target: T2, GFP-USP29 N-terminus (amino acids 1-283) (UniProt Q9HBJ7)
T2 sequence: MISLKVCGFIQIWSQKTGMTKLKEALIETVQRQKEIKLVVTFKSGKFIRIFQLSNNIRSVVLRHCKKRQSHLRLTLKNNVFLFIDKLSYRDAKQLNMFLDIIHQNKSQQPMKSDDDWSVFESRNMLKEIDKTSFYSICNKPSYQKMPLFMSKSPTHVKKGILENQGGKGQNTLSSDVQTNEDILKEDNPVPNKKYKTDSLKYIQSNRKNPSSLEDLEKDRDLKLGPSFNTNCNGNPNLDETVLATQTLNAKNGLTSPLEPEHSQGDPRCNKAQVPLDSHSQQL

[3] = molecular target: T3, GFP-USP29 (wild type, full length) (UniProt Q9HBJ7)
T3 sequence: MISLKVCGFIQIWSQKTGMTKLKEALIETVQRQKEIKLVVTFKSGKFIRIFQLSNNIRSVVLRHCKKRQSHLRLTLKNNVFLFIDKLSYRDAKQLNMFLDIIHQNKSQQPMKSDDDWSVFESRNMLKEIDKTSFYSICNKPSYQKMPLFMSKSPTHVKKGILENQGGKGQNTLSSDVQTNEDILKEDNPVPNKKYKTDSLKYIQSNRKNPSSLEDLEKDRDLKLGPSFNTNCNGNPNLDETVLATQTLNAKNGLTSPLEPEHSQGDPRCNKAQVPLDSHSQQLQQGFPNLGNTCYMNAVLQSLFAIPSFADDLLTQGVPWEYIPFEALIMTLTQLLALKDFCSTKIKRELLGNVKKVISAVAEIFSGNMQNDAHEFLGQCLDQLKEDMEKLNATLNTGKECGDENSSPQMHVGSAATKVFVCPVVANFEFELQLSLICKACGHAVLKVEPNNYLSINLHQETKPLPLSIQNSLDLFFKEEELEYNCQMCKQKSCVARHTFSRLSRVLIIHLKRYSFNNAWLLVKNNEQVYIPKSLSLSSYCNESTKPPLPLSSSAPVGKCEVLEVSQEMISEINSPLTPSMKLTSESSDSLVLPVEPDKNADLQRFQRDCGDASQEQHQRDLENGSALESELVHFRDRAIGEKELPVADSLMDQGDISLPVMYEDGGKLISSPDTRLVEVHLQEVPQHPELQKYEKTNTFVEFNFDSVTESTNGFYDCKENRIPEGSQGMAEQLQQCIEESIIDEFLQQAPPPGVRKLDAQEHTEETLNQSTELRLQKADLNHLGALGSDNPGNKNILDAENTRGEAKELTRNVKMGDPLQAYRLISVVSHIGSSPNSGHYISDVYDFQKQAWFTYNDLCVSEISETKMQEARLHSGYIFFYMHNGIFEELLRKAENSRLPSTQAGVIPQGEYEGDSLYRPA

Flag-tagged Snail1 (from UniProt O95863 1-264)
binding [1]: binds weakly | binding [2]: binds weakly | binding [3]: binds
